The shares of active, inactive and inconclusive entries below differ from those in the screen. Potencies of inconclusive entries are doubtful fits and often do not repeat. Calls of active or inactive are those of the source. The call rests on the fitted dose curve; in most records, active means well fitted inhibition curve with a large enough effect; inconclusive means small, poorly fitted or top-dose-only effect; inactive means flat fitted curve, though single readings scatter.
These compounds were tested against Dual specificity protein kinase CLK4 (Homo sapiens) (UniProt Q9HAZ1) (assay: qHTS Assay for Inhibitors of CDC-like Kinase 4 (ADP-FP Assay) (AID 1795; further: nearly all actives have a fitted effect of over 60% in size)). Details: Transcreener ADP fluorescence polarization; series mostly up to 50 µM; activity change, negative = inhibition: at the top concentration.
Method in brief: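 Recombinant human Clk4 (6.25 nM) phosphorylated RS repeat peptide (100 uM) with 1 uM ATP in Tris pH 7.5/MgCl2/EGTA/DTT/Triton buffer for one hour. ADP was quantified by Transcreener competitive fluorescence polarization against an ADP calibration curve.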
On the % scale 0 is the no-effect control and ±100 the full control effect; potency means the concentration at half of the fitted maximal effect; tags describe the fitted curve by direction and shape.

UniProt Q9HAZ1, sequence (Q9HAZ1 whole entry, looked up): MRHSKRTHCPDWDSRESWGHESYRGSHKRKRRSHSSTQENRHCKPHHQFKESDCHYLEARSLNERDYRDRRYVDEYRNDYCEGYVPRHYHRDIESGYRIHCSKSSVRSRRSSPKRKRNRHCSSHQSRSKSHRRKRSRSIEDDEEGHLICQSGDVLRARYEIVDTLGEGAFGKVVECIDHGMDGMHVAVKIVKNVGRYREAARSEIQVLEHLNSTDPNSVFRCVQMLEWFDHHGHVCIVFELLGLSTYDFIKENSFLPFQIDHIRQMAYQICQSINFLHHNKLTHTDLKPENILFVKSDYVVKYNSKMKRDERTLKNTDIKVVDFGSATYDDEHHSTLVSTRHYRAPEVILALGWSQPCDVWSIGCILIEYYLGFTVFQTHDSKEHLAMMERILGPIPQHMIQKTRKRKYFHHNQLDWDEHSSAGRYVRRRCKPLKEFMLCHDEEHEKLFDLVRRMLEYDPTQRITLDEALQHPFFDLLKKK

Question: For `N#Cc1cccc(-c2nccc(NCc3cccnc3)n2)c1`, which Potency is on record?
Answer: inconclusive: 11.2 µM [falling, partial curve]

Question: `CN(C)c1ncnc2ccc(-c3ccoc3)cc12` was tested. Which Potency did it give?
Answer: active: 0.178 µM

Question: `COc1ccc(-n2c(=O)cnc3cnc(OC)nc32)cc1` was tested. Which Potency did it give?
Answer: inconclusive: 11.2 µM [falling, partial curve]

Question: For `Cc1cnc(CNc2ccnc(-c3cccc(C#N)c3)n2)cn1`, which Potency is on record?
Answer: inconclusive: 12.6 µM [falling, partial curve]

Question: `COc1ccc(-n2c(=O)cnc3cnc(N(C)C)nc32)cc1` was tested. Which Potency did it give?
Answer: active: 11.2 µM

Question: How did the Potency turn out when `Cc1noc(C)c1-c1ccc2ncnc(NCc3cccs3)c2c1` was run?
Answer: active: 0.158 µM

Question: With `FC(F)(F)c1ccccc1-c1ccc2ncnc(NC3CC3)c2c1` as the compound, how does the Potency read?
Answer: inconclusive: 12.6 µM [falling, partial curve]

Question: With `CC(=O)NCCNc1ncnc2ccc(-c3ccccc3Cl)cc12` as the compound, how does the Potency read?
Answer: inconclusive: 7.08 µM [falling, full curve]

Question: How did the Potency turn out when `CN(C)c1ccc(-c2ccc3ncnc(N(C)C)c3c2)cc1` was run?
Answer: inconclusive: 31.6 µM [falling, single point]

Question: Which “activity change, negative = inhibition” value does the source give for `COc1ncc2nc(-c3ccc(F)cc3)c(=O)n(Cc3cccs3)c2n1` here?
Answer: inactive: 5.82%

Question: For `O=c1cnc2cnc(Oc3cccc(Cl)c3)nc2n1CCc1ccccc1`, which Potency is on record?
Answer: inconclusive: 2.82 µM [falling, full curve]

Question: For `COc1ccccc1CNc1ccnc(-c2cccc(C#N)c2)n1`, which Potency is on record?
Answer: active: 3.16 µM

Question: For `Cc1cnc(CNc2ncncc2-c2cccnc2)cn1`, which “activity change, negative = inhibition” value is on record?
Answer: inactive: -12.6%

Question: How did the Potency turn out when `COc1cccc(-c2ccc3ncnc(N(C)C)c3c2)c1` was run?
Answer: active: 2.51 µM

Question: How did the Potency turn out when `Cc1noc(C)c1-c1ccc2ncnc(NCc3cccnc3)c2c1` was run?
Answer: active: 0.794 µM

Question: For `Cc1cnc(CNc2ncncc2-c2ccc3c(c2)OCO3)cn1`, which Potency is on record?
Answer: inconclusive: 12.6 µM [falling, partial curve]

Question: Which Potency does the source give for `COc1cccc(Cn2c(=O)cnc3cncnc32)c1` here?
Answer: inconclusive: 12.6 µM [falling, partial curve]

Question: `CN(C)c1ncc2nc(-c3cccs3)c(=O)n(Cc3cccs3)c2n1` was tested. Which “activity change, negative = inhibition” value did it give?
Answer: inactive: 11.6%

Question: With `FC(F)(F)c1ccccc1-c1nccc(-n2ccnc2)n1` as the compound, how does the Potency read?
Answer: inconclusive: 12.6 µM [falling, partial curve]

Question: How did the Potency turn out when `c1csc(CNc2ncncc2-c2ccoc2)c1` was run?
Answer: inconclusive: 15.8 µM [falling, single point]

Question: How did the Potency turn out when `c1cncc(-c2nc(NCc3cccs3)c3ccccc3n2)c1` was run?
Answer: active: 2 µM

Question: For `CS(=O)(=O)Nc1cccc(-c2ccc3ncnc(NCCN4CCOCC4)c3c2)c1`, which Potency is on record?
Answer: inconclusive: 11.2 µM [falling, partial curve]

Question: With `Cc1nc2cnc(N3CCN(C)CC3)nc2n(CCC#N)c1=O` as the compound, how does the “activity change, negative = inhibition” value read?
Answer: inactive: 9.73%

Question: `COCCn1c(=O)cnc2cnc(N3CCN(C)CC3)nc21` was tested. Which “activity change, negative = inhibition” value did it give?
Answer: inactive: 9.33%

Question: With `COc1ccccc1CNc1cc(-c2c(C)noc2C)ncn1` as the compound, how does the Potency read?
Answer: inconclusive: 14.1 µM [falling, single point]

Question: Which Potency does the source give for `CC(=O)NCCNc1ncnc2ccc(-c3ccccc3C#N)cc12` here?
Answer: inconclusive: 12.6 µM [falling, partial curve]

These compounds were tested against Ubiquitin carboxyl-terminal hydrolase 1 (Homo sapiens) (UniProt O94782) (assay: Inhibitors of USP1/UAF1: Pilot qHTS (AID 504865;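 further: rhodamine fluorescence freed from ubiquitin-rhodamine substrate followed over time; nearly all actives have a fitted effect of over 35% in size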; on activity change, negative = inhibition: top concentration of the series differs between compounds)). Details: purified USP1/UAF1, Ub-rhodamine cleavage fluorescence; series mostly up to 54.9 µM; activity change, negative = inhibition: at the top concentration.
Method in brief: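 USP1/UAF1 complex (1nM) preincubated with compound 15 min at room temperature, then Ub-Rho substrate (150nM final) added. Fluorescence read kinetically at 480/540 nm, 6 reads every 60 seconds. Buffer: 50mM HEPES pH 7.8, 0.5mM EDTA, 0.1 mg/ml BSA, 1mM TCEP, 0.01% Tween-20.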

UniProt O94782, sequence (O94782 whole entry, looked up): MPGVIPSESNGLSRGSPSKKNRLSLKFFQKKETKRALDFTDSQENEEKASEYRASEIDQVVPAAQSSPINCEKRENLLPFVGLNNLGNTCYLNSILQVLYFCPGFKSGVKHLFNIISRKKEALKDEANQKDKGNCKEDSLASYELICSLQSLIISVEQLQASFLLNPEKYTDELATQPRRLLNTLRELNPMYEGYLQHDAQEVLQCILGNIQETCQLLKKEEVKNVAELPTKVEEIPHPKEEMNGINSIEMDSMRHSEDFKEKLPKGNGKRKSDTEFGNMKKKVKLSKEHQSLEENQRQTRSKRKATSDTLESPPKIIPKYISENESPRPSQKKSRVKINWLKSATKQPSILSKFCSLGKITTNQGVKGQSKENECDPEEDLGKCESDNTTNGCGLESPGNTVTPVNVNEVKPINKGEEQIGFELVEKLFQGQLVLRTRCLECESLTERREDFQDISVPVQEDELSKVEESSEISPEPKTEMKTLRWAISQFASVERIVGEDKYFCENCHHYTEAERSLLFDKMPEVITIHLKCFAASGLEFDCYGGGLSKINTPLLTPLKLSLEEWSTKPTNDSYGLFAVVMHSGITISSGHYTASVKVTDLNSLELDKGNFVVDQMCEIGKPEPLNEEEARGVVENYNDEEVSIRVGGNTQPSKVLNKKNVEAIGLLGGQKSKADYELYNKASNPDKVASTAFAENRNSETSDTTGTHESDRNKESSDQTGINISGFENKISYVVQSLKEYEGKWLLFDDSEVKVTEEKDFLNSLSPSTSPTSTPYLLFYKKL

Question: Which Potency does the source give for `COc1cccc(-c2nccc(NCc3ccccc3)n2)c1` here?
Answer: active: 25.1 µM

Question: With `COc1ccc(-n2c(=O)cnc3cnc(OC)nc32)cc1` as the compound, how does the “activity change, negative = inhibition” value read?
Answer: inactive: -13.1%

Question: For `Cc1noc(C)c1-c1ccc2ncnc(NCc3cccs3)c2c1`, which Potency is on record?
Answer: inconclusive: 11.2 µM [inhibitor, partial curve, poor fit]

Question: Which “activity change, negative = inhibition” value does the source give for `COc1cccc(-c2ccc3ncnc(N(C)C)c3c2)c1` here?
Answer: inactive: -16.6%

— PubChem BioAssay (NCATS)
